Laboratory results as given in the supplement of paper PMC12217912.
This is one part of the list. Sequences were assembled here from the parent chain. Values near 0.05 are background.

B1: TEV protease; numbered along this chain (parent)
chain: MGESLFKGPRDYNPISSSICHLTNESDGHTTSLYGIGFGPFIITNKHLFRRNNGTLVVQSLHGVFKVKDTTTLQQHLVDGRDMIIIRMPKDFPPFPQKLKFREPQREERICLVTTNFQTKSMSSMVSDTSCTFPSGDGIFWKHWIQTKDGQCGSPLVSTRDGFIVGIHSASNFTNTNNYFTSVPKNFMELLTNQEAQQWVSGWRLNADSVLWGGHKVFMVKPEEPFQPVKEATQL

Variants of: B1
Assay: raw area under fraction-flipped curve 0-4 h after induction (AUC4h, not background-subtracted), DNA-recorder readout of cleavage of the substrate (dimensionless); higher = more cleavage of the substrate by the protease variant
Settings: temperature: 34 °C; time window: 0-4 h after rhamnose induction
Description: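 In vivo DNA recorder in E. coli TOP10(DE3) ΔrhaA at 34 °C. Each TEVp single-site mutant (parent TEVp 0) is paired with a single-site variant of the 7-mer TEVs (canonical ENLYFQ|S). The substrate sits between flexible linkers in a Bxb1-sfGFP-TEVs-SsrA fusion, so cleavage stabilises Bxb1 and speeds flipping of a recombination array, read by NGS. The value is the raw area under the fraction-flipped curve over 0-4 h after rhamnose induction (AUC4h), with ≥20 reads per time point. It is not background-subtracted; inactive controls average about 0.047.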
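Note: Bxb1 expression induced with 0.2% (w/v) L-rhamnose at OD600 near 0.5, cultures sampled hourly, flipped fraction per protease–substrate barcode pair counted by paired-end Illumina sequencing.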

| Variant | area with substrate ENLYFAS | area with substrate ENLYFCS | area with substrate ENLYFES | area with substrate ENLYFFS | area with substrate ENLYFGS | area with substrate ENLYFHS | area with substrate ENLYFIS | area with substrate ENLYFKS | area with substrate ENLYFLS | area with substrate ENLYFMS | area with substrate ENLYFNS | area with substrate ENLYFPS | area with substrate ENLYFRS | area with substrate ENLYFSS | area with substrate ENLYFTS | area with substrate ENLYFVS | area with substrate ENLYFDS | area with substrate ENLYFWS | area with substrate ENLYFYS |
| --- | --- | --- | --- | --- | --- | --- | --- | --- | --- | --- | --- | --- | --- | --- | --- | --- | --- | --- | --- |
| H21G | 0.0523 | 0.0519 | 0.0614 | 0.0681 | 0.0599 | 0.0482 | 0.0483 | 0.0699 | 0.0476 | 0.0598 | 0.0596 | 0.0556 | 0.0615 | 0.0663 | 0.0492 | 0.058 | – | – | – |
| L22V | 0.0707 | 0.0469 | 0.0567 | 0.0757 | – | 0.0554 | 0.056 | 0.0602 | 0.0526 | 0.0729 | 0.0683 | 0.0663 | – | 0.0496 | 0.0597 | 0.0593 | 0.0532 | 0.0548 | 0.0506 |
| L22K | 0.0455 | – | – | 0.06 | – | – | 0.041 | 0.044 | 0.0455 | 0.0485 | 0.0527 | 0.0426 | 0.0492 | 0.036 | 0.0412 | 0.0368 | 0.0556 | 0.0409 | 0.0654 |
| Y12S | 0.0478 | – | 0.0645 | 0.0722 | 0.059 | 0.0478 | 0.0625 | – | 0.0541 | 0.0595 | – | 0.0685 | 0.0505 | 0.0656 | 0.0584 | 0.0561 | 0.0739 | 0.0468 | – |
| Y12W | 0.0641 | 0.0552 | 0.0702 | 0.057 | – | 0.0604 | 0.0572 | 0.0751 | 0.0713 | 0.0711 | 0.0613 | 0.0621 | 0.063 | 0.0573 | 0.0615 | – | 0.0714 | 0.0713 | 0.0529 |
| Y12H | 0.0536 | – | 0.0652 | 0.0621 | – | 0.0568 | 0.0759 | 0.0583 | – | 0.0663 | 0.061 | 0.0576 | 0.0437 | 0.0484 | 0.0622 | 0.0648 | 0.0614 | 0.0501 | 0.0478 |
| Y12K | 0.0535 | 0.0645 | 0.0647 | 0.0654 | 0.0498 | 0.0624 | 0.0488 | 0.0562 | – | 0.0663 | 0.0587 | 0.0536 | 0.0609 | 0.0571 | 0.0602 | – | 0.0832 | 0.0609 | 0.0597 |
| I19H | 0.0536 | 0.0424 | 0.0587 | 0.0632 | 0.0548 | 0.0501 | 0.0485 | 0.0352 | 0.0549 | 0.0645 | 0.0571 | 0.0526 | – | – | – | 0.0453 | – | – | 0.0495 |
| S18K | 0.0466 | – | 0.0665 | – | – | 0.0556 | 0.0531 | 0.0823 | 0.0655 | 0.0554 | 0.0603 | 0.0539 | 0.0611 | 0.053 | – | 0.0526 | – | – | 0.0536 |
| S18R | 0.053 | 0.0604 | – | 0.0654 | 0.0507 | – | 0.0589 | 0.0609 | 0.0525 | 0.0566 | 0.0559 | 0.0451 | 0.0489 | – | 0.0578 | – | – | – | 0.0515 |
| E25P | 0.0585 | 0.0454 | 0.0526 | 0.0557 | – | 0.0657 | 0.0594 | 0.0552 | – | – | 0.0607 | 0.0514 | 0.0553 | – | 0.0521 | 0.0543 | 0.0548 | – | 0.0549 |
| H29A | 0.0559 | 0.0521 | 0.066 | 0.0687 | – | 0.0534 | 0.0655 | 0.0625 | 0.0819 | 0.0834 | 0.0675 | 0.0575 | 0.0573 | 0.0818 | 0.0636 | 0.0444 | – | 0.0625 | 0.0519 |
| H29D | 0.0646 | 0.0548 | 0.0664 | 0.0767 | 0.0645 | 0.0626 | 0.0592 | – | – | 0.0515 | 0.0587 | 0.0598 | – | 0.0629 | 0.0561 | 0.0615 | 0.0587 | 0.0535 | – |
| I15C | 0.0605 | 0.0554 | 0.0673 | 0.0622 | 0.0591 | 0.0509 | 0.0506 | 0.0537 | – | 0.0684 | 0.0646 | 0.0589 | 0.0417 | 0.0479 | 0.0414 | – | 0.0488 | 0.052 | 0.0367 |
| D27A | 0.0767 | 0.0664 | 0.061 | 0.058 | 0.0629 | 0.0541 | 0.0599 | 0.0523 | – | 0.0648 | 0.0525 | 0.0504 | 0.0619 | 0.059 | 0.0487 | 0.0621 | – | 0.0599 | 0.0594 |
| D27Q | 0.0647 | 0.0663 | – | 0.0613 | 0.0671 | – | 0.0534 | 0.0523 | – | 0.0695 | 0.0641 | 0.0493 | 0.044 | – | 0.0529 | 0.054 | – | 0.042 | 0.0506 |
| P14C | 0.0519 | 0.0719 | 0.0589 | 0.0695 | 0.0619 | 0.0568 | 0.0598 | 0.0645 | 0.0553 | 0.0713 | 0.0612 | 0.0547 | 0.0579 | 0.0562 | 0.0608 | 0.0745 | 0.0594 | – | 0.0381 |
| P14W | 0.058 | 0.0664 | 0.0549 | 0.0946 | 0.0577 | 0.0609 | 0.0644 | 0.0683 | 0.0637 | 0.0649 | 0.0605 | 0.0669 | 0.0661 | – | 0.0941 | 0.0711 | 0.0711 | 0.0505 | 0.0561 |
| S26C | 0.0487 | 0.06 | 0.0629 | 0.0671 | – | 0.0671 | 0.0525 | 0.0603 | 0.0962 | 0.0612 | 0.0572 | 0.0672 | 0.0627 | 0.0523 | 0.0619 | 0.0551 | 0.0686 | 0.0559 | 0.0575 |
| S26F | 0.0584 | 0.0593 | 0.0528 | 0.0723 | – | 0.0637 | 0.0597 | 0.0603 | 0.0447 | 0.0683 | – | 0.0584 | 0.0541 | 0.0557 | 0.0582 | 0.0498 | 0.0557 | 0.0585 | 0.0679 |
| S17F | 0.0541 | 0.0099 | 0.0687 | 0.0583 | 0.0435 | 0.0608 | 0.0477 | 0.0601 | 0.0524 | 0.0646 | 0.0582 | 0.0539 | 0.0683 | 0.051 | 0.055 | 0.0577 | 0.0643 | 0.0511 | 0.0516 |
| S17D | 0.0528 | 0.061 | 0.0626 | 0.0637 | 0.0612 | 0.0559 | 0.0565 | 0.0737 | 0.0642 | 0.0632 | – | 0.062 | 0.048 | 0.0681 | 0.0661 | 0.0577 | – | 0.0576 | 0.0679 |
